Data on 115 sequences can be found in the BET-seq Pho4 binding data (Le et al. 2018).

The list shows a part of the results. The energies were worked out here from pooled read counts, against the library average; single values are noisy.

This test has as its target T1, Pho4 (S. cerevisiae) (UniProt P07270).
T1 sequence: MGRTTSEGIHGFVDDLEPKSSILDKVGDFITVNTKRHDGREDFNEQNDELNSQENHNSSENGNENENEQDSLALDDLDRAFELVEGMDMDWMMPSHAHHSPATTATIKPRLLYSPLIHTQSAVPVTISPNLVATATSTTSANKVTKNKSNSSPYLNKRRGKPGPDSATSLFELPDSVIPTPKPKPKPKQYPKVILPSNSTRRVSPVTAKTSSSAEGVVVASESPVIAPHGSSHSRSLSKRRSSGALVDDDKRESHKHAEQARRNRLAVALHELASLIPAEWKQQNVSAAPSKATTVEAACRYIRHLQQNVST
Kind of test: relative binding free energy (BET-seq); higher = weaker binding. The following applies: reference: library average.
Turning to GGAAGCACGTGGTTTT, the “relative binding free energy” value is -0.02 kcal/mol.

On to CGCTTCACGTGTTTGG, for which the “relative binding free energy” value was determined as 0.24 kcal/mol.

On to ATTGACACGTGGATTG, for which the “relative binding free energy” value came to 0.09 kcal/mol.

On to AGGTCCACGTGTTTGT, for which the “relative binding free energy” value came out at 0 kcal/mol.

AAAAGCACGTGGTATG: the “relative binding free energy” value was -0.15 kcal/mol.

Turning to GATGACACGTGGTGGC, the “relative binding free energy” value is -0.08 kcal/mol.

As to TGACTCACGTGGGGTT, the “relative binding free energy” value was 0.11 kcal/mol.

Consider AAGAGCACGTGTGGTT, for which the “relative binding free energy” value was -0.09 kcal/mol.

For the sequence TTCGGCACGTGGCTGG, the “relative binding free energy” value is -0.07 kcal/mol.

Take ATTGACACGTGTATGT: the “relative binding free energy” value is -0.1 kcal/mol.

AGTTGCACGTGTAAGG: the “relative binding free energy” value turned out to be 0.04 kcal/mol.

On to CCAGGCACGTGTATGG, for which the “relative binding free energy” value amounted to 0.03 kcal/mol.

Regarding CAGGTCACGTGGCGGA, the “relative binding free energy” value is 0.07 kcal/mol.

Take TACGGCACGTGGGATG: the “relative binding free energy” value was -0.23 kcal/mol.

Take TTAATCACGTGTAAAG: the “relative binding free energy” value amounted to 0.17 kcal/mol.

Take TGAGGCACGTGGGCGT: the “relative binding free energy” value is -0.23 kcal/mol.

Regarding GTGAGCACGTGAGCTG, the “relative binding free energy” value was 0.22 kcal/mol.

With ATAGACACGTGTTTTT, the “relative binding free energy” value was 0.09 kcal/mol.

As for AGATCCACGTGGTGAG, the “relative binding free energy” value is 0.09 kcal/mol.

With GGATGCACGTGTCGGT, the “relative binding free energy” value was 0.09 kcal/mol.

In the case of CTGTGCACGTGTGGGT, the “relative binding free energy” value is 0 kcal/mol.

For ATGAGCACGTGGGATA, the “relative binding free energy” value is -0.12 kcal/mol.

Turning to TTTATCACGTGGGGCT, the “relative binding free energy” value is 0.09 kcal/mol.

With TTGTTCACGTGCGCTG, the “relative binding free energy” value turned out to be 0.29 kcal/mol.

Regarding CCTGTCACGTGGTTAT, the “relative binding free energy” value is 0.05 kcal/mol.

As to CGTGACACGTGGGGGT, the “relative binding free energy” value was -0.07 kcal/mol.

Regarding TGAGTCACGTGATATT, the “relative binding free energy” value came out at 0.24 kcal/mol.

With TTGGACACGTGATGGC, the “relative binding free energy” value turned out to be 0.17 kcal/mol.

Take CTATGCACGTGTGTGG: the “relative binding free energy” value was -0.08 kcal/mol.

For the sequence ATTTACACGTGGGGGG, the “relative binding free energy” value was -0.02 kcal/mol.

For the sequence ATTATCACGTGGGTTG, the “relative binding free energy” value was -0.06 kcal/mol.

On to CTTTGCACGTGGAAGG, for which the “relative binding free energy” value is -0.02 kcal/mol.

In the case of TTTTGCACGTGTACTC, the “relative binding free energy” value was determined as 0.24 kcal/mol.

In the case of CGTGTCACGTGGTGAA, the “relative binding free energy” value was 0.02 kcal/mol.

Turning to GGGGCCACGTGAGGTG, the “relative binding free energy” value stood at 0.22 kcal/mol.

Regarding AGTAGCACGTGTGTTC, the “relative binding free energy” value was -0.15 kcal/mol.

For the sequence GATAGCACGTGTGGTT, the “relative binding free energy” value was 0.15 kcal/mol.

For CAGTGCACGTGTAGAT, the “relative binding free energy” value was determined as 0.23 kcal/mol.

As for TTGAGCACGTGGTTAT, the “relative binding free energy” value is -0.17 kcal/mol.

Consider TAAAGCACGTGAATGT, for which the “relative binding free energy” value was 0.05 kcal/mol.

GTATGCACGTGATTTT: the “relative binding free energy” value worked out at 0.18 kcal/mol.

Consider TGGACCACGTGTTTTG, for which the “relative binding free energy” value was -0.11 kcal/mol.

CGATACACGTGTTGGT: the “relative binding free energy” value is 0 kcal/mol.

As to GGTTACACGTGGTTGA, the “relative binding free energy” value came out at 0.13 kcal/mol.

In the case of GCATTCACGTGTGTGA, the “relative binding free energy” value is 0.35 kcal/mol.

With TGGAGCACGTGGCTTG, the “relative binding free energy” value was -0.11 kcal/mol.

With AAAATCACGTGTTAGT, the “relative binding free energy” value is -0.02 kcal/mol.

In the case of ATCGTCACGTGAATAT, the “relative binding free energy” value amounted to 0.29 kcal/mol.

On to TGGTTCACGTGGGGCG, for which the “relative binding free energy” value worked out at 0.17 kcal/mol.

In the case of TAGGGCACGTGATAGG, the “relative binding free energy” value was determined as 0.01 kcal/mol.

Turning to TCGAGCACGTGTTGTT, the “relative binding free energy” value is -0.04 kcal/mol.

For the sequence AAGCTCACGTGGTTAT, the “relative binding free energy” value came to 0.25 kcal/mol.

Take GAGGGCACGTGTAAGA: the “relative binding free energy” value turned out to be 0.14 kcal/mol.

For GCGTTCACGTGTGTGA, the “relative binding free energy” value is 0.4 kcal/mol.

Consider GGTAGCACGTGCGCTG, for which the “relative binding free energy” value was -0.07 kcal/mol.

On to AGTTACACGTGTGCTG, for which the “relative binding free energy” value was -0.01 kcal/mol.

Consider GGTATCACGTGGGGCG, for which the “relative binding free energy” value is -0.02 kcal/mol.

Consider TCATTCACGTGGTGGC, for which the “relative binding free energy” value came to 0.25 kcal/mol.

In the case of AAATTCACGTGGTTGC, the “relative binding free energy” value was found to be 0.24 kcal/mol.

Turning to GTCTTCACGTGATGTG, the “relative binding free energy” value was 0.41 kcal/mol.

Take TGCTTCACGTGCTAGG: the “relative binding free energy” value is 0.21 kcal/mol.

With TATATCACGTGCATGG, the “relative binding free energy” value was 0.07 kcal/mol.

Regarding AGTGGCACGTGTCATG, the “relative binding free energy” value was -0.01 kcal/mol.

Consider ATCTTCACGTGGGATA, for which the “relative binding free energy” value was determined as 0.17 kcal/mol.

For TTCGTCACGTGGTGCA, the “relative binding free energy” value worked out at 0.03 kcal/mol.

Take ATTAACACGTGGTTTG: the “relative binding free energy” value was -0.06 kcal/mol.

Consider ATTCTCACGTGTTATT, for which the “relative binding free energy” value turned out to be 0.18 kcal/mol.

AATGGCACGTGCTTTT: the “relative binding free energy” value is -0.18 kcal/mol.

Turning to TGGGGCACGTGAGAAG, the “relative binding free energy” value was -0.06 kcal/mol.

As for ATGGGCACGTGTAATG, the “relative binding free energy” value is -0.04 kcal/mol.

Take AAAGGCACGTGATGCT: the “relative binding free energy” value was determined as 0.01 kcal/mol.

Turning to TGGAGCACGTGCTGTG, the “relative binding free energy” value was -0.15 kcal/mol.

ACTAGCACGTGTGGAA: the “relative binding free energy” value was determined as 0.27 kcal/mol.

TTGGCCACGTGAGTGC: the “relative binding free energy” value came to 0.1 kcal/mol.

Take GGGGTCACGTGCATTG: the “relative binding free energy” value was determined as 0.12 kcal/mol.

Take TCGGGCACGTGGGGTA: the “relative binding free energy” value was -0.21 kcal/mol.

For AAATACACGTGAGGTG, the “relative binding free energy” value came to 0.26 kcal/mol.

Take CTAAGCACGTGTTTGT: the “relative binding free energy” value is -0.14 kcal/mol.

In the case of ATTTGCACGTGTTCTG, the “relative binding free energy” value is 0.02 kcal/mol.

Consider TTGGACACGTGATGGG, for which the “relative binding free energy” value was 0.1 kcal/mol.

Take TATGGCACGTGAGCTA: the “relative binding free energy” value was 0.06 kcal/mol.

In the case of GGCGGCACGTGATGTA, the “relative binding free energy” value amounted to 0.16 kcal/mol.

For GTTACCACGTGTGTAG, the “relative binding free energy” value was found to be 0.1 kcal/mol.

TGATGCACGTGGGCGA: the “relative binding free energy” value is -0.01 kcal/mol.

Take AGTTGCACGTGTGTCA: the “relative binding free energy” value was -0.2 kcal/mol.

Consider GGTAGCACGTGGTAAA, for which the “relative binding free energy” value is 0.09 kcal/mol.

Consider TGGCACACGTGGAGGA, for which the “relative binding free energy” value was found to be 0 kcal/mol.

AAATGCACGTGAGTTG: the “relative binding free energy” value turned out to be 0.24 kcal/mol.

Regarding GCAGTCACGTGTGGCG, the “relative binding free energy” value came to 0.12 kcal/mol.

Take GGGAACACGTGGCGGG: the “relative binding free energy” value was 0.14 kcal/mol.

With ATACGCACGTGAGGGG, the “relative binding free energy” value is -0.05 kcal/mol.

As for CTGGCCACGTGAGTGT, the “relative binding free energy” value worked out at 0.16 kcal/mol.

On to ATTGTCACGTGCTATT, for which the “relative binding free energy” value is 0.04 kcal/mol.

Take ATTCACACGTGCGGTG: the “relative binding free energy” value is 0.05 kcal/mol.

In the case of ATATTCACGTGCTAGG, the “relative binding free energy” value is 0.1 kcal/mol.

As for CTTTGCACGTGATTTT, the “relative binding free energy” value is -0.01 kcal/mol.

For TGGGTCACGTGATTCA, the “relative binding free energy” value stood at 0.44 kcal/mol.

Consider TCATTCACGTGAGGGG, for which the “relative binding free energy” value is 0.41 kcal/mol.

On to AATGGCACGTGGAGGA, for which the “relative binding free energy” value was -0.07 kcal/mol.

With TGCTTCACGTGCTTGA, the “relative binding free energy” value was 0.33 kcal/mol.

With ATGTTCACGTGCACGG, the “relative binding free energy” value is 0.1 kcal/mol.

Regarding AAATACACGTGTGGAT, the “relative binding free energy” value is 0.29 kcal/mol.

In the case of GTATACACGTGATGTT, the “relative binding free energy” value came out at 0.16 kcal/mol.

Turning to GAGAGCACGTGGGTTA, the “relative binding free energy” value is -0.16 kcal/mol.

Consider ATTGGCACGTGGTTAA, for which the “relative binding free energy” value is -0.17 kcal/mol.

TAGATCACGTGTAATT: the “relative binding free energy” value came to 0.08 kcal/mol.

On to GGTTGCACGTGTTATT, for which the “relative binding free energy” value was determined as 0.2 kcal/mol.

GTGAGCACGTGATGGC: the “relative binding free energy” value was determined as 0.24 kcal/mol.

Take TCAGTCACGTGAGTTG: the “relative binding free energy” value is 0.36 kcal/mol.

For the sequence TAGGGCACGTGTGTCT, the “relative binding free energy” value is -0.15 kcal/mol.

As for GTCATCACGTGGTAGG, the “relative binding free energy” value worked out at 0.18 kcal/mol.

TGGAGCACGTGATTCG: the “relative binding free energy” value is -0.01 kcal/mol.

GTACGCACGTGAGTTG: the “relative binding free energy” value was 0.08 kcal/mol.

With AAGGGCACGTGATTTT, the “relative binding free energy” value came to 0.06 kcal/mol.

TTCTGCACGTGTGGTA: the “relative binding free energy” value came out at 0.07 kcal/mol.
